PubChem BioAssay AID686970 (National Center for Advancing Translational Sciences (NCATS), 2013)
“And” between values parts separate entries of the source, which are not always exact repeats. Equal values may be shown once. Screen size: about 360,000 compounds; about 6,000 (1.7%) were called active. Inconclusive means that the source gave no clear call. Such entries were picked first, then a sample of the others. The call rests on the fitted dose curve; in most records, active means well fitted cell-killing curve with a large enough effect; inconclusive means small, poorly fitted or top-dose-only effect, or effect the other way; inactive means flat fitted curve, though single readings scatter. A potency beside an inconclusive call is a rough fit, not a confirmed value.
Potency means the concentration at half of the fitted maximal effect; tags describe the fitted curve by direction and shape.

Experiment: qHTS for induction of synthetic lethality in tumor cells producing 2HG: qHTS for the HT-1080-NT fibrosarcoma cell line;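 further: NT is the 2HG producing partner of a matched IDH1 knockdown line; nearly all actives have a fitted effect of over 55% in size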;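 on activity, negative = less viability: 0% = DMSO-treated cells and -100% = media-only wells without cells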
Details: HT-1080-NT fibrosarcoma viability, CellTiter-Glo ATP luminescence, 48 h; activity, negative = less viability: at 46.1 µM (top of the series) unless noted
How it was run: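 Fibrosarcoma NT cells, 750 per well in 5% FBS RPMI, were exposed to compound for 48 hours. Viability: CellTiter-Glo luminescence.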
In the case of `CCCC[C@@H](CNC)NC[C@H](NCCCCC1CCCCC1)C(C)C`, the Potency is reported as inconclusive: 29.1 µM [cytotoxic, single point]. In the case of `COc1cccc(/C=N/NC(=O)CSCC(=O)Nc2ccccc2)c1O`, the Potency is reported as active: 3.98 µM. For `O=C(NCC(O)c1ccc([N+](=O)[O-])cc1)c1cccc(S(=O)(=O)N2CCOCC2)c1` (stereo unspecified), the activity, negative = less viability was inconclusive: -31.5% [cytotoxic]. For `Nc1ccc(S(=O)(=O)Nc2cnc3ccccc3n2)cc1`, the activity, negative = less viability was inconclusive: -0.193%. With `COc1ccccc1-c1nnc2n1N=C(C(C)(C)C)CS2` the “activity, negative = less viability” value was inactive: 2.73%. With `COc1cc2c(cc1OC)C(c1cccc([N+](=O)[O-])c1)N(C(=O)CCC(=O)O)CC2` (stereo unspecified) the “activity, negative = less viability” value was inactive: 0.257%. In the case of `O=C(O)c1ccccc1SCC(=O)N1c2ccccc2Sc2ccccc21`, the “activity, negative = less viability” value is reported as inactive: -0.699%. In the case of `O=C(O)c1cccc(N2C(=O)c3ccc(C(=O)c4cccc([N+](=O)[O-])c4)cc3C2=O)c1`, the Potency is reported as inconclusive: 29.1 µM [rising, single point]. For `Cc1ccc(-c2csc(NC(=O)CN3CC(C)OC(C)C3)n2)cc1` (stereo unspecified), the Potency was inconclusive: 18.4 µM [cytotoxic, partial curve]. For `COc1cccc(-c2nc(CS(=O)(=O)CC(=O)NCCCN3CC(C)CC(C)C3)c(C)o2)c1` (stereo unspecified), the Potency was inconclusive: 29.1 µM [cytotoxic, single point]. In the case of `O=C(CCSc1ccc(Cl)cc1)N1CCN(c2ccc(O)cc2)CC1`, the Potency is reported as inconclusive: 1.84 µM [cytotoxic, full curve]. With `Cc1ccc2oc(=O)c3cnn(CC(=O)N(CCCN4CCOCC4)Cc4ccco4)c3c2c1` the Potency was inconclusive: 29.1 µM [cytotoxic, single point]. With `C=CCN=C1S/C(=C\c2ccc(N(C)C)cc2)C(=O)N1CC=C` the Potency was inconclusive: 10.3 µM [rising, partial curve]. For `O=S1(=O)CC(N2CCN(c3ccccn3)CC2)CN1C1CCCCC1` (stereo unspecified), the “activity, negative = less viability” value was inactive: 1.6%. For `CCCC[C@@H](CN[C@H](C)CNC)NCC1CCC(C(C)(C)C)CC1` (stereo partly specified), the Potency was inconclusive: 18.4 µM [cytotoxic, single point]. For `COC(=O)[C@@H]1C[C@H]2CC[C@H](O)C[C@H]2N1Cc1ccc(Cl)cc1`, the “activity, negative = less viability” value was inactive: 8.53%. With `Cc1ccc(CNC(=O)Cn2nnc(C(=O)Nc3cccc(C)c3C)c2N)cc1` the Potency was inconclusive: 16.4 µM [cytotoxic, partial curve]. With `C=C1SC(=Nc2ccccc2Cl)N(C(=O)c2sc3ccccc3c2Cl)C1(C)C` the Potency was inconclusive: 25.9 µM [cytotoxic, single point]. With `C(=NNc1nnn(Cc2ccccc2)n1)c1ccccc1` the Potency was active: 9.2 µM. In the case of `O=C(Nc1ccc(CN2CCCCC2)cc1)c1sc2ccccc2c1Cl`, the Potency is reported as inconclusive: 29.1 µM [cytotoxic, single point]. In the case of `Cc1ccc(C)c(OCC(O)CN2CCC(Cc3ccccc3)CC2)c1` (stereo unspecified), the Potency is reported as inconclusive: 29.1 µM [cytotoxic, single point]. For `CCCn1c(N2CCN(C(=O)Nc3ccc(Cl)cc3)CC2)nc2ccccc21`, the “activity, negative = less viability” value was inactive: -11.1%. For `N#Cc1ccc(C(=O)OCC(=O)N2CCN(C(=O)c3ccco3)CC2)cc1`, the “activity, negative = less viability” value was inactive: 6.43%. In the case of `COc1cc(NS(=O)(=O)c2ccc(NC(=S)NC(=O)c3sc4cc(F)ccc4c3Cl)cc2)nc(OC)n1`, the “activity, negative = less viability” value is reported as inactive: 7.23%. With `COC(=O)c1c(C)[nH]c(-c2csc(N)n2)c1C` the Potency was inconclusive: 18.4 µM [cytotoxic, single point]. With `Cc1nc(C)c(C(=O)NNS(=O)(=O)c2ccc([N+](=O)[O-])cc2)s1` the “activity, negative = less viability” value was inactive: 10.7%. For `Cc1ccc(C)c(/C=C/C(=O)c2ccccc(=O)c2O)c1`, the Potency was inconclusive: 32.6 µM [cytotoxic, partial curve]. For `CCCCNc1c(-c2ccc(OC)c(SC(C)CC)c2)nc2ccc(C)cn12` (stereo unspecified), the Potency was active: 20.6 µM. For `CCc1ccc(NC(=O)CCc2nc3sc4c(c3c(=O)[nH]2)CCCC4)cc1`, the Potency was inconclusive: 29.1 µM [cytotoxic, single point]. With `Cc1cc(C)cc(N(CC(=O)Nc2ccc(-c3nc4ccc(C)cc4s3)cc2)S(C)(=O)=O)c1` the Potency was inconclusive: 18.4 µM [cytotoxic, single point]. With `O=C(Nc1ncc(Cc2cccc(C(F)(F)F)c2)s1)c1ccc(-c2cccc([N+](=O)[O-])c2)o1` the Potency was inconclusive: 23.1 µM [cytotoxic, single point]. For `Cc1ccc2c(c1)NC(=O)[C@@]1(C)[C@@H](c3ccccc3)[C@H]3COc4ccccc4[C@@H]3N1C2=O`, the “activity, negative = less viability” value was inactive: -23.8%. For `Cc1nc(SCC(=O)N2CCCCCC2)c2c(=O)n(C)c(=O)n(CC(C)C)c2n1`, the Potency was inconclusive: 16.4 µM [cytotoxic, single point]. For `CC(C)NC(=O)c1cc(-c2ccc3c(c2)OCO3)on1`, the activity, negative = less viability was inconclusive: 0.332%. For `N#CNC(=Nc1cccc(F)c1)SCc1cccc(F)c1`, the “activity, negative = less viability” value was inactive: 0.41%. With `Cc1ccc(-c2nnc(NC(=O)c3ccco3)o2)c(C)c1` the activity, negative = less viability was inconclusive: -35.8% [cytotoxic]. With `COC(=O)c1cc(C(=O)N2CCN(c3cccc(C)c3C)CC2)cc([N+](=O)[O-])c1` the Potency was active: 1.84 µM. With `COc1ccc(C(=O)NNC(=S)NC(=O)c2ccco2)cc1` the Potency was inconclusive: 20.6 µM [cytotoxic, partial curve]. With `COc1ccc(S(=O)(=O)NC(=O)C2(C)CCN2C(=O)C2(c3ccc(Cl)cc3)CCC2)cc1` (stereo unspecified) the Potency was inconclusive: 18.4 µM [rising, single point]. With `O=C1C=CC(=O)N1c1ccc(N2CCCCC2)cc1` the Potency was inconclusive: 29.1 µM [cytotoxic, single point]. With `COc1cc(NC(=O)c2nccn2C)cc(C(=O)Nc2cccc(C(F)(F)F)c2)c1` the Potency was inconclusive: 25.9 µM [cytotoxic, single point] and inconclusive: 18.4 µM [cytotoxic, single point]. With `CC1(c2ccccc2)CC(C)(C)N2C(=O)C3(C(C#N)=C(N)Oc4cc(O)ccc43)c3cccc1c32` (stereo unspecified) the Potency was inconclusive: 25.1 µM [cytotoxic, single point]. In the case of `Cc1ccc2nc(C3CCCCC3)c(CC(C)(C)C)n2c1`, the Potency is reported as active: 16.4 µM. With `COc1cc(-c2cc(NC=O)c3ncc(-c4ccc(C(C)=O)cc4)n3c2)cc(OC)c1OC` the Potency was inconclusive: 8.2 µM [cytotoxic, partial curve]. For `COc1ccccc1CN(Cc1nc2ccccc2c(=O)[nH]1)C(=O)Nc1ccccc1C`, the Potency was inconclusive: 35.5 µM [cytotoxic, single point]. With `C[C@H](CO)N1C[C@H](C)[C@H](CN(C)S(=O)(=O)c2cccc(F)c2)OCc2ccccc2-c2c(n(C)c3ccccc23)C1=O` the Potency was inconclusive: 29.1 µM [cytotoxic, single point]. For `C[C@@H](c1ccccc1)N1C[C@@H](COCc2ccccc2)Oc2cc(N3CC[C@H](O)C3)ccc2S1(=O)=O`, the Potency was inconclusive: 25.9 µM [cytotoxic, single point]. In the case of `COc1ccccc1NC(=O)CCc1nnc2ccc(N3CCN(C)CC3)nn12`, the “activity, negative = less viability” value is reported as inactive: 0.991%. With `Cc1cccc2cc(CN(CCCO)C(=O)Nc3ccc(Cl)cc3)c(=O)[nH]c12` the Potency was inconclusive: 23.1 µM [cytotoxic, partial curve]. For `CCOC(=O)c1c(C2CC2)csc1NC(=O)COC(=O)c1cc(OC)c(OC)cc1[N+](=O)[O-]`, the “activity, negative = less viability” value was inactive: 3.98%. With `Cc1ccc(Nc2nc(N/N=C/c3c[nH]c4ccccc34)nc(N3CCOCC3)n2)cc1` the Potency was inconclusive: 29.1 µM [cytotoxic, single point]. In the case of `OCC1(CCc2ccccc2)CCN(Cc2ccc(OC(F)F)cc2)CC1`, the activity, negative = less viability is reported as inconclusive: -30.4% [cytotoxic]. With `O=C(COc1ccccc1Cl)Nc1ccc(C(=O)N2CCCCC2)cc1` the Potency was inconclusive: 29.1 µM [cytotoxic, single point]. In the case of `Cc1cc(NC(=O)C2CCCCC2)n(-c2nc3ccccc3[nH]2)n1`, the Potency is reported as inconclusive: 9.2 µM [cytotoxic, partial curve]. With `Cc1ccccc1Nc1nc(-c2sc(NC(=O)c3ccco3)nc2C)cs1` the “activity, negative = less viability” value was inactive: -1.33%. With `COc1ccc(OCC(=O)Nc2ccc(N3CCN(C(=O)c4ccccc4C)CC3)cc2)cc1` the “activity, negative = less viability” value was inactive: -5.29%. With `O=C(CSc1nnc(-c2ccncc2)n1Cc1ccco1)Nc1nc(-c2ccccc2)cs1` the Potency was inconclusive: 7.31 µM [cytotoxic, partial curve]. In the case of `CC(C)(C)NC(=O)NC(=O)COc1ccc(Br)cc1Br`, the Potency is reported as inconclusive: 29.1 µM [cytotoxic, single point]. With `CCOC(=O)c1ccccc1NC(=O)Cn1c(=O)n(Cc2ccccc2)c(=O)c2c(C)c(C)sc21` the Potency was inconclusive: 29.1 µM [rising, single point]. With `CCC(C)(C)NC(=O)C(c1ccc(C)cc1)N(Cc1ccco1)C(=O)Cn1nnc2ccccc21` (stereo unspecified) the Potency was inconclusive: 25.9 µM [cytotoxic, single point]. In the case of `CC(C)(C)n1nnnc1C(c1ccnc2ccccc12)N1CCN(C/C=C/c2ccccc2)CC1` (stereo unspecified), the Potency is reported as inconclusive: 20.6 µM [cytotoxic, single point]. In the case of `CCCCNC(=O)c1c[nH]c2ccc(S(=O)(=O)Nc3ccc(OCC)cc3)cc2c1=O`, the Potency is reported as inconclusive: 23.1 µM [cytotoxic, single point]. For `O=C(Nc1cccc(-c2cccc(Cl)c2)c1)C1CCN(Cc2ccccn2)CC1`, the Potency was inconclusive: 20.6 µM [cytotoxic, single point]. In the case of `CCN(c1ccc(Cl)cc1)S(=O)(=O)c1nnc(NC(=O)C(C)C)s1`, the activity, negative = less viability is reported as inconclusive: -22.5% [cytotoxic]. With `CCSc1nnc(NC(=O)C(CC)(C(F)(F)F)C(F)(F)F)s1` the Potency was inconclusive: 18.4 µM [cytotoxic, partial curve]. For `FC(F)Oc1ccc(NC(=S)NC2CCCCCCC2)cc1`, the Potency was inconclusive: 29.1 µM [cytotoxic, single point].
